# Laboratory results published in the supplement of paper PMC8728848.
# The list shows a part of the results.
# B1: rCnSL-proA (Clitocybe nebularis) (protein)
# chain: AAFFSLVVLLALLPFGIHASALPSTELTPRVNPNLPGPNDVFVGFRGTNNIVGAIYEKDGIKDTPLNNGADAEMGPGSYITDGLFTARIFASGSAGNNPGTTATVCKIYASGVQWRGAPKGYIPVAYFGNGPTAEQRRQTYLRTLGLPGTAIRFGNLNTNPGQGPTAPRQMVVPPGPLRSLLKASCFPAADTRLPQTLHYFEKRVDWNIITAADSQTWGH
# Assays:
# Assay in all cases: glycan array binding signal (z-score within array); higher = stronger binding
# Details in all cases: glycan notation: IUPAC condensed, linker removed
# [1] = biological target: Gal(b1-4)GlcNAc(b1-3)Gal(b1-4)GlcNAc(b1-6)[Gal(b1-3)]GalNAc
# Summary of the method: (§1)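 Columns mapping to the same glycan were averaged after glycan names were converted to IUPAC-condensed notation. The data come from 3228 arrays in the Consortium for Functional Glycomics database, limited to those with an available protein sequence. Binding is reported as a within-array Z-score averaged across arrays of one protein sequence and across linkers.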
# [2] = biological target: Gal(b1-4)GlcNAc(b1-3)Gal(b1-4)[Fuc(a1-3)]GlcNAc(b1-3)Gal(b1-4)[Fuc(a1-3)]GlcNAc
# Summary of the method: as §1
# [3] = biological target: Gal(b1-4)GlcNAc(b1-3)GalNAc
# Summary of the method: as §1
# [4] = biological target: Gal(b1-4)GlcNAc(b1-3)[Fuc(a1-3)GlcNAc(b1-6)]Gal(b1-4)Glc
# Summary of the method: as §1
# [5] = biological target: Gal(b1-4)GlcNAc(b1-3)[Gal(b1-4)GlcNAc(b1-6)]Gal(b1-4)GlcNAc
# Summary of the method: as §1
# [6] = biological target: Gal(b1-4)GlcNAc(b1-3)[GlcNAc(b1-6)]Gal(b1-4)GlcNAc
# Summary of the method: as §1
# [7] = biological target: Gal(b1-4)GlcNAc(b1-6)Gal(b1-4)GlcNAc
# Summary of the method: as §1
# [8] = biological target: Gal(b1-4)GlcNAc(b1-6)GalNAc
# Summary of the method: as §1
# [9] = biological target: Gal(b1-4)GlcNAc(b1-6)[Gal(b1-3)]GalNAc
# Summary of the method: as §1
# [10] = biological target: Gal(b1-4)GlcNAc(b1-6)[Gal(b1-4)GlcNAc(b1-3)]GalNAc
# Summary of the method: as §1
# Gal(b1-4)GlcNAc6P = biological target: Gal(b1-4)GlcNAc6P
# Summary of the method: as §1
# Gal(b1-6)Gal = biological target: Gal(b1-6)Gal
# Summary of the method: as §1
# Gal3S(b1-3)GalNAc = biological target: Gal3S(b1-3)GalNAc
# Summary of the method: as §1
# Gal3S(b1-3)GlcNAc = biological target: Gal3S(b1-3)GlcNAc
# Summary of the method: as §1
# [11] = biological target: Gal3S(b1-3)[Fuc(a1-4)]GlcNAc
# Summary of the method: as §1
# Gal3S(b1-4)Glc = biological target: Gal3S(b1-4)Glc
# Summary of the method: as §1
# Gal3S(b1-4)Glc6S = biological target: Gal3S(b1-4)Glc6S
# Summary of the method: as §1
# Gal3S(b1-4)GlcNAc = biological target: Gal3S(b1-4)GlcNAc
# Summary of the method: as §1
# [12] = biological target: Gal3S(b1-4)[Fuc(a1-3)]Glc6S
# Summary of the method: as §1
# [13] = biological target: Gal3S(b1-4)[Fuc(a1-3)]GlcNAc
# Summary of the method: as §1
# [14] = biological target: Gal3S(b1-4)[Fuc(a1-3)]GlcNAc6S
# Summary of the method: as §1
# Gal3S4S(b1-4)GlcNAc = biological target: Gal3S4S(b1-4)GlcNAc
# Summary of the method: as §1
# Gal3S6S(b1-4)GlcNAc = biological target: Gal3S6S(b1-4)GlcNAc
# Summary of the method: as §1
# Gal3S6S(b1-4)GlcNAc6S = biological target: Gal3S6S(b1-4)GlcNAc6S
# Summary of the method: as §1
# Gal4S(b1-4)GlcNAc = biological target: Gal4S(b1-4)GlcNAc
# Summary of the method: as §1
# Gal4S6S(b1-4)GlcNAc = biological target: Gal4S6S(b1-4)GlcNAc
# Summary of the method: as §1
# Gal6P(b1-4)GlcNAc = biological target: Gal6P(b1-4)GlcNAc
# Summary of the method: as §1
# Gal6S(b1-3)GlcNAc = biological target: Gal6S(b1-3)GlcNAc
# Summary of the method: as §1
# Gal6S(b1-3)GlcNAc6S = biological target: Gal6S(b1-3)GlcNAc6S
# Summary of the method: as §1
# Gal6S(b1-4)Glc = biological target: Gal6S(b1-4)Glc
# Summary of the method: as §1
# Gal6S(b1-4)Glc6S = biological target: Gal6S(b1-4)Glc6S
# Summary of the method: as §1
# Gal6S(b1-4)GlcNAc = biological target: Gal6S(b1-4)GlcNAc
# Summary of the method: as §1
# Gal6S(b1-4)GlcNAc6S = biological target: Gal6S(b1-4)GlcNAc6S
# Summary of the method: as §1
# GalNAc(a1-3)Gal = biological target: GalNAc(a1-3)Gal
# Summary of the method: as §1
# GalNAc(a1-3)GalNAc = biological target: GalNAc(a1-3)GalNAc
# Summary of the method: as §1
# [15] = biological target: GalNAc(a1-3)GalNAc(b1-3)Gal(a1-4)Gal(b1-4)Glc
# Summary of the method: as §1
# [16] = biological target: GalNAc(a1-3)GalNAc(b1-3)Gal(a1-4)Gal(b1-4)GlcNAc
# Summary of the method: as §1
# GalNAc(b1-3)Gal = biological target: GalNAc(b1-3)Gal
# Summary of the method: as §1
# [17] = biological target: GalNAc(b1-3)Gal(a1-4)Gal(b1-4)GlcNAc
# Summary of the method: as §1
# [18] = biological target: GalNAc(b1-3)Gal(a1-4)Gal(b1-4)GlcNAc(b1-3)Gal(b1-4)Glc
# Summary of the method: as §1
# [19] = biological target: GalNAc(b1-3)Gal(a1-6)Gal(b1-4)Glc
# Summary of the method: as §1
# GalNAc(b1-3)GalNAc = biological target: GalNAc(b1-3)GalNAc
# Summary of the method: as §1
# GalNAc(b1-3)GlcNAc = biological target: GalNAc(b1-3)GlcNAc
# Summary of the method: as §1
# GalNAc(b1-4)Gal(b1-4)Glc = biological target: GalNAc(b1-4)Gal(b1-4)Glc
# Summary of the method: as §1
# GalNAc(b1-4)GlcNAc = biological target: GalNAc(b1-4)GlcNAc
# Summary of the method: as §1
binder,measurement,setting,value
B1,glycan array binding signal (z-score),[1],1.95
same,glycan array binding signal (z-score),[2],-0.135
same,glycan array binding signal (z-score),[3],-0.32
same,glycan array binding signal (z-score),[4],0.661
same,glycan array binding signal (z-score),[5],-0.071
same,glycan array binding signal (z-score),[6],0.091
same,glycan array binding signal (z-score),[7],-0.504
same,glycan array binding signal (z-score),[8],-0.307
same,glycan array binding signal (z-score),[9],-0.086
same,glycan array binding signal (z-score),[10],0.04
same,glycan array binding signal (z-score),Gal(b1-4)GlcNAc6P,-1.27
same,glycan array binding signal (z-score),Gal(b1-6)Gal,-0.149
same,glycan array binding signal (z-score),Gal3S(b1-3)GalNAc,-0.368
same,glycan array binding signal (z-score),Gal3S(b1-3)GlcNAc,-0.309
same,glycan array binding signal (z-score),[11],-0.266
same,glycan array binding signal (z-score),Gal3S(b1-4)Glc,-0.304
same,glycan array binding signal (z-score),Gal3S(b1-4)Glc6S,-0.416
same,glycan array binding signal (z-score),Gal3S(b1-4)GlcNAc,-0.132
same,glycan array binding signal (z-score),[12],-0.507
same,glycan array binding signal (z-score),[13],-0.076
same,glycan array binding signal (z-score),[14],-0.185
same,glycan array binding signal (z-score),Gal3S4S(b1-4)GlcNAc,-0.317
same,glycan array binding signal (z-score),Gal3S6S(b1-4)GlcNAc,-0.324
same,glycan array binding signal (z-score),Gal3S6S(b1-4)GlcNAc6S,-0.596
same,glycan array binding signal (z-score),Gal4S(b1-4)GlcNAc,-0.376
same,glycan array binding signal (z-score),Gal4S6S(b1-4)GlcNAc,-0.282
same,glycan array binding signal (z-score),Gal6P(b1-4)GlcNAc,-0.327
same,glycan array binding signal (z-score),Gal6S(b1-3)GlcNAc,-0.777
same,glycan array binding signal (z-score),Gal6S(b1-3)GlcNAc6S,-0.576
same,glycan array binding signal (z-score),Gal6S(b1-4)Glc,-0.662
same,glycan array binding signal (z-score),Gal6S(b1-4)Glc6S,-0.504
same,glycan array binding signal (z-score),Gal6S(b1-4)GlcNAc,-0.713
same,glycan array binding signal (z-score),Gal6S(b1-4)GlcNAc6S,-0.45
same,glycan array binding signal (z-score),GalNAc(a1-3)Gal,-0.243
same,glycan array binding signal (z-score),GalNAc(a1-3)GalNAc,-0.629
same,glycan array binding signal (z-score),[15],-0.574
same,glycan array binding signal (z-score),[16],-0.007
same,glycan array binding signal (z-score),GalNAc(b1-3)Gal,-0.048
same,glycan array binding signal (z-score),[17],0.014
same,glycan array binding signal (z-score),[18],-0.096
same,glycan array binding signal (z-score),[19],0.329
same,glycan array binding signal (z-score),GalNAc(b1-3)GalNAc,-0.444
same,glycan array binding signal (z-score),GalNAc(b1-3)GlcNAc,-0.496
same,glycan array binding signal (z-score),GalNAc(b1-4)Gal(b1-4)Glc,0.571
same,glycan array binding signal (z-score),GalNAc(b1-4)GlcNAc,-0.02
